# Experimental data from the supplement of paper PMC8728848.
# Some of the results follow.
# B1: GSL-I (Griffonia simplicifolia) (protein)
# chain: FNLPNFWSDVKDNIIFQGDANTTAGTLQLCKTNQYGNPLQYRAGRALYSDPVQLWDNKTGSVASFYTEFTFFLKITGDGPADGLAFFLAPPDSDVKDAGAYLGLFNKSTATQPSKNQVVAVEFDTWKNTDFPEPSYRHIGINVNSIVSVATKRWEDSDIFSGKIATARISYDGSAKILTVVLSYPDGADYILSHSVDLSKNLPNPIRVGISASTGANQFLTVYVLSWRFSSALQSTSVNAAMGPEIIRTVV
# Legend:
# Assay in all cases: glycan array binding signal (z-score within array); higher = stronger binding
# Conditions in all cases: glycan notation: IUPAC condensed, linker removed
# [1] = biological target: Neu5Ac(a2-6)Gal(b1-4)GlcNAc(b1-3)Gal(b1-4)GlcNAc(b1-3)[Neu5Ac(a2-6)Gal(b1-4)GlcNAc(b1-3)Gal(b1-4)GlcNAc(b1-6)]GalNAc
# Procedure, shortened: (§1)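 Glycan array data were curated from 3228 arrays in the Consortium for Functional Glycomics database and kept only where the protein sequence was available. Glycan names were converted to IUPAC-condensed notation, and columns mapping to the same glycan were averaged. The binding signal is a within-array Z-score, averaged across arrays of the same protein sequence at different concentrations or buffers and across linkers. Negative Z-scores can be read as non-binding.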
# [2] = biological target: Neu5Ac(a2-6)Gal(b1-4)GlcNAc(b1-3)Gal(b1-4)GlcNAc(b1-6)[Gal(b1-3)]GalNAc
# Procedure, shortened: as §1
# [3] = biological target: Neu5Ac(a2-6)Gal(b1-4)GlcNAc(b1-3)Gal(b1-4)[Fuc(a1-3)]GlcNAc(b1-3)Gal(b1-4)[Fuc(a1-3)]GlcNAc
# Procedure, shortened: as §1
# [4] = biological target: Neu5Ac(a2-6)Gal(b1-4)GlcNAc(b1-3)GalNAc
# Procedure, shortened: as §1
# [5] = biological target: Neu5Ac(a2-6)Gal(b1-4)GlcNAc(b1-3)[Neu5Ac(a2-6)Gal(b1-4)GlcNAc(b1-6)]GalNAc
# Procedure, shortened: as §1
# [6] = biological target: Neu5Ac(a2-6)Gal(b1-4)GlcNAc(b1-6)GalNAc
# Procedure, shortened: as §1
# [7] = biological target: Neu5Ac(a2-6)Gal(b1-4)GlcNAc(b1-6)[Gal(b1-3)GlcNAc(b1-3)]Gal(b1-4)Glc
# Procedure, shortened: as §1
# [8] = biological target: Neu5Ac(a2-6)Gal(b1-4)GlcNAc(b1-6)[Gal(b1-3)]GalNAc
# Procedure, shortened: as §1
# [9] = biological target: Neu5Ac(a2-6)Gal(b1-4)GlcNAc6S
# Procedure, shortened: as §1
# Neu5Ac(a2-6)GalNAc = biological target: Neu5Ac(a2-6)GalNAc
# Procedure, shortened: as §1
# [10] = biological target: Neu5Ac(a2-6)GalNAc(b1-4)GlcNAc
# Procedure, shortened: as §1
# [11] = biological target: Neu5Ac(a2-6)GalNAc(b1-4)GlcNAc6S
# Procedure, shortened: as §1
# [12] = biological target: Neu5Ac(a2-6)GlcNAc(b1-4)GlcNAc
# Procedure, shortened: as §1
# [13] = biological target: Neu5Ac(a2-6)GlcNAc(b1-4)GlcNAc(b1-4)GlcNAc
# Procedure, shortened: as §1
# Neu5Ac(a2-8)Neu5Ac = biological target: Neu5Ac(a2-8)Neu5Ac
# Procedure, shortened: as §1
# [14] = biological target: Neu5Ac(a2-8)Neu5Ac(a2-3)Gal(b1-3)GalNAc(b1-4)[Neu5Ac(a2-3)]Gal(b1-4)Glc
# Procedure, shortened: as §1
# [15] = biological target: Neu5Ac(a2-8)Neu5Ac(a2-3)Gal(b1-3)GalNAc(b1-4)[Neu5Ac(a2-8)Neu5Ac(a2-3)]Gal(b1-4)Glc
# Procedure, shortened: as §1
# [16] = biological target: Neu5Ac(a2-8)Neu5Ac(a2-3)Gal(b1-4)Glc
# Procedure, shortened: as §1
# [17] = biological target: Neu5Ac(a2-8)Neu5Ac(a2-3)Gal(b1-4)GlcNAc
# Procedure, shortened: as §1
# [18] = biological target: Neu5Ac(a2-8)Neu5Ac(a2-3)[Gal(b1-3)GalNAc(b1-4)]Gal(b1-4)Glc
# Procedure, shortened: as §1
# [19] = biological target: Neu5Ac(a2-8)Neu5Ac(a2-3)[GalNAc(b1-4)]Gal(b1-4)Glc
# Procedure, shortened: as §1
# [20] = biological target: Neu5Ac(a2-8)Neu5Ac(a2-8)Neu5Ac
# Procedure, shortened: as §1
# [21] = biological target: Neu5Ac(a2-8)Neu5Ac(a2-8)Neu5Ac(a2-3)Gal(b1-4)Glc
# Procedure, shortened: as §1
# [22] = biological target: Neu5Ac(a2-8)Neu5Ac(a2-8)Neu5Ac(a2-3)[Gal(b1-3)GalNAc(b1-4)]Gal(b1-4)Glc
# Procedure, shortened: as §1
# [23] = biological target: Neu5Ac(a2-8)Neu5Ac(a2-8)Neu5Ac(a2-3)[GalNAc(b1-4)]Gal(b1-4)Glc
# Procedure, shortened: as §1
# [24] = biological target: Neu5Ac(a2-8)Neu5Ac(a2-8)Neu5Ac(a2-8)Neu5Ac(a2-3)[GalNAc(b1-4)]Gal(b1-4)Glc
# Procedure, shortened: as §1
# [25] = biological target: Neu5Ac(a2-8)Neu5Gc(a2-3)Gal(b1-4)GlcNAc
# Procedure, shortened: as §1
# Neu5Ac(b1-6)GalNAc = biological target: Neu5Ac(b1-6)GalNAc
# Procedure, shortened: as §1
# [26] = biological target: Neu5Ac(b2-6)Gal(b1-4)GlcNAc
# Procedure, shortened: as §1
# Neu5Ac(b2-6)GalNAc = biological target: Neu5Ac(b2-6)GalNAc
# Procedure, shortened: as §1
# [27] = biological target: Neu5Ac9Ac(a2-3)Gal(b1-3)GlcNAc
# Procedure, shortened: as §1
# [28] = biological target: Neu5Ac9Ac(a2-3)Gal(b1-4)GlcNAc
# Procedure, shortened: as §1
# [29] = biological target: Neu5Ac9Ac(a2-6)Gal(b1-4)GlcNAc
# Procedure, shortened: as §1
# [30] = biological target: Neu5Gc(a2-3)Gal(b1-3)GlcNAc
# Procedure, shortened: as §1
# [31] = biological target: Neu5Gc(a2-3)Gal(b1-3)[Fuc(a1-4)]GlcNAc
# Procedure, shortened: as §1
# Neu5Gc(a2-3)Gal(b1-4)Glc = biological target: Neu5Gc(a2-3)Gal(b1-4)Glc
# Procedure, shortened: as §1
# [32] = biological target: Neu5Gc(a2-3)Gal(b1-4)GlcNAc
# Procedure, shortened: as §1
# [33] = biological target: Neu5Gc(a2-3)Gal(b1-4)GlcNAc(b1-3)Gal(b1-4)GlcNAc(b1-2)Man(a1-3)[Neu5Gc(a2-3)Gal(b1-4)GlcNAc(b1-3)Gal(b1-4)GlcNAc(b1-2)Man(a1-6)]Man(b1-4)GlcNAc(b1-4)GlcNAc
# Procedure, shortened: as §1
# [34] = biological target: Neu5Gc(a2-3)Gal(b1-4)[Fuc(a1-3)]GlcNAc
# Procedure, shortened: as §1
# [35] = biological target: Neu5Gc(a2-6)Gal(b1-4)GlcNAc
# Procedure, shortened: as §1
# Neu5Gc(a2-6)GalNAc = biological target: Neu5Gc(a2-6)GalNAc
# Procedure, shortened: as §1
# [36] = biological target: Neu5Gc(a2-8)Neu5Ac(a2-3)Gal(b1-4)GlcNAc
# Procedure, shortened: as §1
# [37] = biological target: Neu5Gc(a2-8)Neu5Gc(a2-3)Gal(b1-4)GlcNAc
# Procedure, shortened: as §1
# [38] = biological target: Neu5Gc(a2-8)Neu5Gc(a2-3)Gal(b1-4)GlcNAc(b1-3)Gal(b1-4)GlcNAc
# Procedure, shortened: as §1
# [39] = biological target: Neu5Gc(a2-8)Neu5Gc(a2-6)Gal(b1-4)GlcNAc
# Procedure, shortened: as §1
# [40] = biological target: Neu5Gc(b2-6)Gal(b1-4)GlcNAc
# Procedure, shortened: as §1
binder,measurement,setting,value
B1,glycan array binding signal (z-score),[1],0.97
same,glycan array binding signal (z-score),[2],-0.048
same,glycan array binding signal (z-score),[3],-0.218
same,glycan array binding signal (z-score),[4],-0.128
same,glycan array binding signal (z-score),[5],-0.198
same,glycan array binding signal (z-score),[6],-0.215
same,glycan array binding signal (z-score),[7],-0.211
same,glycan array binding signal (z-score),[8],-0.233
same,glycan array binding signal (z-score),[9],-0.208
same,glycan array binding signal (z-score),Neu5Ac(a2-6)GalNAc,-0.113
same,glycan array binding signal (z-score),[10],-0.169
same,glycan array binding signal (z-score),[11],-0.271
same,glycan array binding signal (z-score),[12],-0.054
same,glycan array binding signal (z-score),[13],-0.225
same,glycan array binding signal (z-score),Neu5Ac(a2-8)Neu5Ac,-0.184
same,glycan array binding signal (z-score),[14],-0.326
same,glycan array binding signal (z-score),[15],-0.178
same,glycan array binding signal (z-score),[16],-0.242
same,glycan array binding signal (z-score),[17],-0.263
same,glycan array binding signal (z-score),[18],-0.217
same,glycan array binding signal (z-score),[19],-0.186
same,glycan array binding signal (z-score),[20],-0.197
same,glycan array binding signal (z-score),[21],-0.235
same,glycan array binding signal (z-score),[22],-0.172
same,glycan array binding signal (z-score),[23],-0.104
same,glycan array binding signal (z-score),[24],-0.176
same,glycan array binding signal (z-score),[25],-0.15
same,glycan array binding signal (z-score),Neu5Ac(b1-6)GalNAc,-0.325
same,glycan array binding signal (z-score),[26],-0.218
same,glycan array binding signal (z-score),Neu5Ac(b2-6)GalNAc,-0.213
same,glycan array binding signal (z-score),[27],-0.276
same,glycan array binding signal (z-score),[28],0.231
same,glycan array binding signal (z-score),[29],-0.275
same,glycan array binding signal (z-score),[30],-0.164
same,glycan array binding signal (z-score),[31],-0.21
same,glycan array binding signal (z-score),Neu5Gc(a2-3)Gal(b1-4)Glc,-0.213
same,glycan array binding signal (z-score),[32],-0.244
same,glycan array binding signal (z-score),[33],-0.241
same,glycan array binding signal (z-score),[34],-0.153
same,glycan array binding signal (z-score),[35],-0.201
same,glycan array binding signal (z-score),Neu5Gc(a2-6)GalNAc,-0.124
same,glycan array binding signal (z-score),[36],-0.236
same,glycan array binding signal (z-score),[37],-0.296
same,glycan array binding signal (z-score),[38],-0.258
same,glycan array binding signal (z-score),[39],-0.145
same,glycan array binding signal (z-score),[40],-0.099
